# Assay results published in publication PMC7819943, “Rice protein-binding microarrays: a tool to detect cis-acting elements near promoter regions in rice”.
# The other results are listed elsewhere or left out.
# Target: T1, OsWOX13 (Oryza sativa, UniProt Q5QMM3 1-267)
# T1 sequence: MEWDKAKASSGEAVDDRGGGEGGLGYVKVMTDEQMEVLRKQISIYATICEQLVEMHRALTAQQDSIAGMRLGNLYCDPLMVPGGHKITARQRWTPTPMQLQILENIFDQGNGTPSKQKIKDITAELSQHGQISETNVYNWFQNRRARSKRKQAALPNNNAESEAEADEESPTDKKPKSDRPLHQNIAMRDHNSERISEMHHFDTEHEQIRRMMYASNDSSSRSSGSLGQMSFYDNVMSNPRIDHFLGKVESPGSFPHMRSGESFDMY
# Experiment: protein-binding microarray (RPBM); PBS, 2% BSA, 51.3 ng/ul salmon testes DNA, 50 uM zinc acetate, 200 nM TF, 25 C, 1 h; high values mean tight binding
# Conditions: protein: recombinant; tags: N-terminal polyhistidine and DsRed monomer fusion (pET32a); label: CyDye5-dUTP incorporated in the synthesized complementary strand; 3' TTTTT single-stranded linker to array surface; dsDNA, one strand shown
# Outline: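 Polyhistidine-tagged DsRed fusions of transcription factors, joined at the N-terminus, were expressed in E. coli BL21-CodonPlus and isolated on Ni–NTA. They were incubated at 200 nM for 1 h at 25 °C on a custom Agilent array, double-stranded and BSA-blocked, in PBS with 2% BSA, salmon testes DNA and 50 µM zinc acetate. The binding signal is per-feature fluorescence intensity (arbitrary units) read on an Axon 4000B scanner after washing.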
row,Sequence,binding signal
1,TCTGACAGAATATTTTGGAATTTGCAGGTCTTGCTTCTTTCGGAGTCACCTAGTGCAG,16800 fluorescence intensity (a.u.)
2,AGCTCGTCCGATGGTGATTGATGTTGTCGAGCTGGGGTCGCGGAGTCACCTAGTGCAG,27000 fluorescence intensity (a.u.)
3,CCAATGTAATTATAATGTAAGTGCAATGCAACTTCTATATCGGAGTCACCTAGTGCAG,13600 fluorescence intensity (a.u.)
4,AACAGGTAGGCAGGAGGTCGGAATCTGTCACCATGTGTGTCGGAGTCACCTAGTGCAG,6560 fluorescence intensity (a.u.)
5,GTAAATTTAGAAGTTTTAAATGCACCCAGTAATATTTTGTCGGAGTCACCTAGTGCAG,3350 fluorescence intensity (a.u.)
6,GACAAACTGACACGGTGACAGTATAAGGGGCTCGCATCCGCGGAGTCACCTAGTGCAG,10600 fluorescence intensity (a.u.)
7,TATTATTTATTTTGTTTGTGATTTGCTTTGTTATTAATAGCGGAGTCACCTAGTGCAG,8380 fluorescence intensity (a.u.)
8,TCAAATTATAATGGCATGATGATTTTAAATACCTATCAAACGGAGTCACCTAGTGCAG,16100 fluorescence intensity (a.u.)
9,AAAATTTAATTGATTATATGCTAATAACTTTCTTGTTTTGCGGAGTCACCTAGTGCAG,51600 fluorescence intensity (a.u.)
10,GCCGTTAGTTAATTATTATCCGGTAAAGAAGATTAGTAGTCGGAGTCACCTAGTGCAG,12200 fluorescence intensity (a.u.)
11,AATATATTGATTTTAGTTTGAAGCCAAATTATTGACATTGCGGAGTCACCTAGTGCAG,17800 fluorescence intensity (a.u.)
12,GTTGATGTTTCAGTAATTGAAGCTTTGATGTTTTGTGTATCGGAGTCACCTAGTGCAG,36600 fluorescence intensity (a.u.)
13,CCAGCCACTCATCAATCACTCAAGGCCCCTCCTCCTCTCTCGGAGTCACCTAGTGCAG,10800 fluorescence intensity (a.u.)
14,AATATCTTGATTTGCTATTGGCTAGAAAATAGTGGGGATGCGGAGTCACCTAGTGCAG,12700 fluorescence intensity (a.u.)
15,AGATGACTGGCTATGATATCCAATCCTCAGTTGATCTCTTCGGAGTCACCTAGTGCAG,16100 fluorescence intensity (a.u.)
16,GTTTAATTTGACATCACGGCTGCATGGATCCATTTCCTCCCGGAGTCACCTAGTGCAG,33000 fluorescence intensity (a.u.)
17,CCCCTTGCTGTAATTACACAACACTCAGTTCATTTGCAATCGGAGTCACCTAGTGCAG,8620 fluorescence intensity (a.u.)
18,TTGTAATTGCAAAGGTAAAGGAGAGATGTACTTGATAATGCGGAGTCACCTAGTGCAG,8230 fluorescence intensity (a.u.)
19,CTTAAATTACTTCGTATTAACAAAGTGTGTTGCATCATAACGGAGTCACCTAGTGCAG,13400 fluorescence intensity (a.u.)
20,GTTCACGATTTTGATAGACGCACATTGCAAGAAGGGTGATCGGAGTCACCTAGTGCAG,3680 fluorescence intensity (a.u.)
21,ACAAATTATGATGTTTTCTAATGAACATCATCGCCTGGTTCGGAGTCACCTAGTGCAG,12900 fluorescence intensity (a.u.)

row,Sequence,binding signal
1,CGTACTCTTAGCAGATGATTGATTGCTTACTACCTTTTCCCGGAGTCACCTAGTGCAG,30600 fluorescence intensity (a.u.)
2,ATAAGATGATTTGCACTGGCGTAATGCATGTGAAATGCTACGGAGTCACCTAGTGCAG,12300 fluorescence intensity (a.u.)
3,AAGCAATCAGCAGCACTCCATTCATCAGGAGGCACGCAACCGGAGTCACCTAGTGCAG,3940 fluorescence intensity (a.u.)
4,CAATAAATTAGGCTCAAACGGGTAACAGATTCGCTACTACCGGAGTCACCTAGTGCAG,16000 fluorescence intensity (a.u.)
5,AATTCAATCTTGTGGTTACCACAATATAGAGCACAATGGCCGGAGTCACCTAGTGCAG,3550 fluorescence intensity (a.u.)
6,TCGTAAATTTAAATCCATAGATTTAAGGAATACTTAGGCTCGGAGTCACCTAGTGCAG,25900 fluorescence intensity (a.u.)
7,TATAAATTTTAGGTGTATAAATTTACTAAAATAGAAAAGTCGGAGTCACCTAGTGCAG,4120 fluorescence intensity (a.u.)
8,TTAAAATTTATATGTTAAATTATAGTGGTTTAAAATTTCACGGAGTCACCTAGTGCAG,8530 fluorescence intensity (a.u.)
9,AGAAATTGATTCGTCGAGGATATTGATCTATTAGTAAATGCGGAGTCACCTAGTGCAG,36700 fluorescence intensity (a.u.)
10,GTGGTGGGATTTGGAACTGGAACCATGTGGTAGCATCTAGCGGAGTCACCTAGTGCAG,4980 fluorescence intensity (a.u.)
11,TTGTGATTTCTCGCGACCAAGCCAAACCTGTTAACTGGAACGGAGTCACCTAGTGCAG,6160 fluorescence intensity (a.u.)
12,CATAATTTTACCGGAGTTTCTGCTACTAGCAGTGATGGGCCGGAGTCACCTAGTGCAG,10900 fluorescence intensity (a.u.)
13,GTTCGGTTCCATCAATCAAATCTAGCTAACCATGCCGGCACGGAGTCACCTAGTGCAG,18600 fluorescence intensity (a.u.)
14,CTAAATCACCTTACATCATTAGAATAACTTAAATCTGATTCGGAGTCACCTAGTGCAG,4350 fluorescence intensity (a.u.)
15,TACGTGTGTTGATTTCCGTGACATATGCATAAATTTCTTTCGGAGTCACCTAGTGCAG,3870 fluorescence intensity (a.u.)
16,CTATAATTTAAAGGACTTAGTTTATGATAGTGATGGGTGTCGGAGTCACCTAGTGCAG,26600 fluorescence intensity (a.u.)
17,ATGCTAAAATGATTTATATTATATTTACGATCGAAGGAAGCGGAGTCACCTAGTGCAG,16800 fluorescence intensity (a.u.)
18,TAATCACGTTAATTGCATGGCTTAATGCCCTTGATAAATTCGGAGTCACCTAGTGCAG,11200 fluorescence intensity (a.u.)
19,AACTGAATTTGCCTGATGACAGCCGTATCCACCCAGTTGTCGGAGTCACCTAGTGCAG,6210 fluorescence intensity (a.u.)
20,AATAATTAATTTCTGAGAAAACGACAGGTCATTTTACTTACGGAGTCACCTAGTGCAG,29700 fluorescence intensity (a.u.)
21,AAGTTGATGTGATGGAAAAGGACTGAAGTTTGGATTCAAACGGAGTCACCTAGTGCAG,7380 fluorescence intensity (a.u.)
